Where two headings read alike, the source gives them in different places. For at least one compound, name, drawing or mass did not settle the structure.
Tests used:
[1] = target: T1, rat α1β2γ2L type GABAA receptors (Rattus norvegicus (Rat), UniProt P62813+P63138, INS375LLRMFSFK); conditions: et al., cited from earlier work; for potentiation of GABA-mediated currents: as reported previously, Bandyopadhyaya; for ratio of currents measured in the presence/absence of added compound, 0.1 μM: 0.1 μM compound; for ratio of currents measured in the presence/absence of added compound, 0.1 μM / ratio of currents measured in the presence/absence of added compound, 1 μM / ratio of currents measured in the presence/absence of added compound, 10 μM: 2 μM GABA; for ratio of currents measured in the presence/absence of added compound, 0.1 μM / ratio of currents measured in the presence/absence of added compound, 1 μM / (gating) 10 μM: ratio of compound only current/2 μM GABA current / ratio of currents measured in the presence/absence of added compound, 10 μM: from Bandyopadhyaya; for ratio of currents measured in the presence/absence of added compound, 1 μM: 1 μM compound; for (gating) 10 μM: ratio of compound only current/2 μM GABA current: 10 μM compound in the absence of GABA; for ratio of currents measured in the presence/absence of added compound, 10 μM: 10 μM compound
[2] = tested on: BALB/C mice; assay: Anesthesia in mice, tail vein injection (loss of righting reflex); format: in vivo
Description: Anesthetic evaluations were performed in 7-8 week-old BALB/C mice, weighing approximately 20 g. Steroids were dissolved in 22.5% (w/v) 2-hydroxypropyl-β-cyclodextrin solution (Sigma-Aldrich) at a concentration of 1.6 mg/ml or 3.2 mg/ml and injected through the tail vein in volumes of 5 μl/g body weight. Doses (8 or 16 mg/kg) were calculated according to body weight. Animals were placed prone as soon as they stopped moving. Loss of LRR was defined as inability of mice to right themselves within 5 seconds after being placed in a prone position. […] Animals were placed on a warming blanket during the time that they were anesthetized. Each dose was administered to three or four mice and the results are presented as mean±standard error of the mean.

[3] = tested on: tadpole; conditions: et al., cited from earlier work
[4] = target: picrotoxin binding site on GABAA receptors; conditions: read-out: IC50, inhibition of [35S]-TBPS binding; values obtained from Bandyopadhyaya, et al.; ± SEM; cited from earlier work
[5] = tested on: tadpole; assay: Tadpole loss of righting reflex (LRR) and loss of swimming reflex (LSR); format: in vivo; conditions: loss of swimming reflex; None = all animals had a swimming response at 10 μM
[6] = target: T1, rat α1β2γ2L type GABAA receptors; assay: Oocyte electrophysiology: potentiation of 2 μM GABA chloride currents and direct gating, Xenopus laevis oocytes; format: cell-based; conditions: 0.1-10 μM compound
[7] = loss of righting reflex, from Bandyopadhyaya, read-out: Tadpole LRR EC50
[8] = loss of swimming reflex, None = all animals had a swimming response at 10 μM, from Bandyopadhyaya, read-out: Tadpole LSR EC50

Structure (SMILES) | potentiation of GABA-mediated currents [1] | duration of anesthesia (loss of righting reflex) ([2]; 8 mg/kg) | onset of loss of righting reflex ([2]; 16 mg/kg) | EC50 [3, 7] | EC50 [3, 8] | ratio of currents measured in the presence/absence of added compound, 0.1 μM [1] | ratio of currents measured in the presence/absence of added compound, 1 μM [1] | (gating) 10 μM: ratio of compound only current/2 μM GABA current [1] | ratio of currents measured in the presence/absence of added compound, 10 μM [1] | Tadpole LSR EC50 ([3]; loss of swimming reflex, None = all animals had a swimming response at 10 μM, from Bandyopadhyaya) | tadpole LRR ([3]; published previously, Bandyopadhyaya) | IC50 [4] | Tadpole LSR EC50 [5] | potentiation of GABA-mediated currents [6]
CC(=O)[C@H]1CC[C@H]2[C@@H]3CC[C@H]4C[C@H](O)CC[C@]4(C)[C@H]3C(=O)C[C@]12C [Compound 1, alphaxalone, reference compound] | strong potentiator | very brief anesthesia | immediate | 1120 ± 140 nM | 5480 ± 110 nM |  |  |  |  |  |  |  |  | 
CC(=O)C1=CC[C@H]2[C@@H]3CC[C@H]4C[C@H](O)CC[C@]4(C)[C@H]3C(=O)C[C@]12C [Compound 2, Δ^16-alphaxalone] | is not |  |  | > 10000 nM |  | 0.94 ± 0.04 | 0.97 ± 0.05 | 0.08 ± 0.07 | 1.87 ± 0.14 | None^d | did not cause LRR | 2220 nM |  | 
C[C@]12CC[C@@H](O)C[C@@H]1CC[C@H]1[C@@H]3CC[C@H](C#N)[C@@]3(C)CC(=O)[C@@H]12 [Compound 3] | strong potentiators |  |  | 720 ± 110 nM | 5480 ± 120 nM | 1.12 ± 0.03 | 4.59 ± 0.42 | 0.14 ± 0.03 | 21.14 ± 2.14 |  |  | 190 ± 18 nM |  | 
C[C@]12CC[C@@H](O)C[C@@H]1CC[C@@H]1[C@@H]2C(=O)C[C@]2(C)C(C#N)=CC[C@@H]12 [Compound 4] | strong potentiators |  |  | 1040 ± 140 nM | 5480 ± 120 nM | 1.49 ± 0.44 | 4.07 ± 1.09 | 0.21 ± 0.04 | 23.75 ± 3.61 |  |  | 361 ± 58 nM |  | 
C[C@]12CC[C@@H](O)C[C@@H]1CC[C@@H]1[C@@H]2C(=O)C[C@]2(C)C(C=O)=CC[C@@H]12 [Compound 5a, (3α,5α)-3-Hydroxy-11-oxoandrost-16-ene-17-carboxaldehyde] |  |  |  |  |  |  |  |  |  |  |  |  | None | concentration-dependent potentiation
C[C@]12CC[C@@H](O)C[C@@H]1CC[C@H]1[C@@H]3CC[C@H](C=O)[C@@]3(C)CC(=O)[C@@H]12 [Compound 5b, (3α,5α,17β)-3-Hydroxy-11-oxoandrostane-17-carboxaldehyde] |  |  |  |  |  |  |  |  |  |  |  |  | None | 
